Consider nine compounds from the antibiotic and cytotoxicity screens of Wong et al. (2023).

Structures are written as SMILES. Some of the results follow.

The test system of one experiment is HSkMC. The experiment can be described thus: cytotoxicity call (relative viability < 0.9). The following applies: 10 µM.
In another experiment the test system is HepG2. The experiment can be described thus: cytotoxicity call (relative viability < 0.9). The following applies: 10 µM.
Another experiment deals with S. aureus RN4220. The experiment can be described thus: growth inhibition call (relative growth <= 0.2). The following applies: 50 µM.

Regarding `COc1ccc(NC(=O)Nc2ccc3c(c2)CC(=O)N([C@@H](C)CO)C[C@@H](C)[C@H](CN(C)S(=O)(=O)c2c(C)noc2C)O3)cc1`, the cytotoxicity call in the experiment on HSkMC and in the experiment with HepG2 was “inactive” throughout. Besides, the growth inhibition call in the experiment with S. aureus RN4220 was “inactive”.
For the compound `C[C@@H]1CN([C@@H](C)CO)C(=O)Cc2cc(NC(=O)Cc3ccccc3)ccc2O[C@@H]1CN(C)C(=O)Nc1cccc2ccccc12`, the cytotoxicity call in the experiment on HSkMC and in the experiment with HepG2 was “inactive” each time. In addition, the growth inhibition call with S. aureus RN4220 was “inactive”.
On to `C[C@H](CO)N1C[C@H](C)[C@@H](CN(C)C(=O)Nc2ccc(C(C)(C)C)cc2)OCc2cnnn2CCCC1=O`, for which the cytotoxicity call in the experiment on HSkMC and in the experiment on HepG2 was “inactive” each time. Further, the growth inhibition call in the experiment on S. aureus RN4220 was “inactive”.
For `Cc1noc(C)c1NC(=O)Nc1ccc2c(c1)C(=O)N([C@H](C)CO)C[C@H](C)[C@H](CN(C)Cc1ccncc1)OCCCC[C@@H](C)O2`, the cytotoxicity call in the experiment with HSkMC and in the experiment on HepG2 was “inactive” throughout. Also, the growth inhibition call with S. aureus RN4220 was “inactive”.
`C[C@@H]1CN([C@H](C)CO)C(=O)c2cc(C#Cc3ccc(F)cc3)cnc2O[C@H]1CN(C)Cc1ccccn1`: the cytotoxicity call in the experiment on HSkMC and in the experiment on HepG2 was “inactive” throughout. In the experiment with S. aureus RN4220, the growth inhibition call is “inactive”.
For the compound `Cc1cc(C(=O)Nc2cccc3c2O[C@@H](CN(C)S(C)(=O)=O)[C@H](C)CN([C@@H](C)CO)C3=O)n(C)n1`, the cytotoxicity call with HSkMC and in the experiment with HepG2 was “inactive” throughout. The growth inhibition call in the experiment with S. aureus RN4220 is “inactive”.
As to `C[C@H](CO)N1C[C@H](C)[C@H](CN(C)Cc2ccncc2)Oc2c(NC(=O)c3cnccn3)cccc2C1=O`, the cytotoxicity call with HSkMC and in the experiment with HepG2 was “inactive” throughout. Moreover, in the experiment on S. aureus RN4220, the growth inhibition call was “inactive”.
Consider `COc1ccc(S(=O)(=O)Nc2ccc3c(c2)CC(=O)N([C@H](C)CO)C[C@@H](C)[C@@H](CN(C)S(=O)(=O)c2cn(C)cn2)O3)cc1`, for which the cytotoxicity call in the experiment with HSkMC and in the experiment on HepG2 was “inactive” in each case. In addition, the growth inhibition call in the experiment with S. aureus RN4220 was “inactive”.
For `C[C@@H]1CCCCO[C@@H](CN(C)C(=O)NC2CCCCC2)[C@H](C)CN([C@@H](C)CO)C(=O)c2cc(NS(=O)(=O)c3ccccc3)ccc2O1`, in the experiment on HSkMC (human skeletal muscle cells), the cytotoxicity call is “inactive”. Also, in the experiment with HepG2, the cytotoxicity call was “active”. For the same compound, the growth inhibition call in the experiment with S. aureus RN4220 is “inactive”.
